Laboratory results from PubChem BioAssay AID1768 (National Center for Advancing Translational Sciences (NCATS), 2009).
“And” between values parts separate entries of the source, which are not always exact repeats. Identical values can stand only once. In all, about 270,000 compounds went through this assay and about 620 (0.23%) were called active. The shares of active, inactive and inconclusive entries below differ from those in the screen. The call rests on the fitted dose curve; in most records, active means well fitted inhibition curve with a large enough effect in the polarisation, with a control signal flat (not every such curve was filed as active); inconclusive means small, poorly fitted or top-dose-only effect, or effect the other way, or a change in a side signal; inactive means no such curve, though single readings can be large or run the other way; the % refers to the polarisation. A potency beside an inconclusive call is a rough fit, not a confirmed value. A note “side channel” means that the fit belongs to a control or component signal, not to the main read-out.

Target: Menin (Homo sapiens) (UniProt O00255)
Chain of UniProt O00255 (O00255 whole entry, looked up): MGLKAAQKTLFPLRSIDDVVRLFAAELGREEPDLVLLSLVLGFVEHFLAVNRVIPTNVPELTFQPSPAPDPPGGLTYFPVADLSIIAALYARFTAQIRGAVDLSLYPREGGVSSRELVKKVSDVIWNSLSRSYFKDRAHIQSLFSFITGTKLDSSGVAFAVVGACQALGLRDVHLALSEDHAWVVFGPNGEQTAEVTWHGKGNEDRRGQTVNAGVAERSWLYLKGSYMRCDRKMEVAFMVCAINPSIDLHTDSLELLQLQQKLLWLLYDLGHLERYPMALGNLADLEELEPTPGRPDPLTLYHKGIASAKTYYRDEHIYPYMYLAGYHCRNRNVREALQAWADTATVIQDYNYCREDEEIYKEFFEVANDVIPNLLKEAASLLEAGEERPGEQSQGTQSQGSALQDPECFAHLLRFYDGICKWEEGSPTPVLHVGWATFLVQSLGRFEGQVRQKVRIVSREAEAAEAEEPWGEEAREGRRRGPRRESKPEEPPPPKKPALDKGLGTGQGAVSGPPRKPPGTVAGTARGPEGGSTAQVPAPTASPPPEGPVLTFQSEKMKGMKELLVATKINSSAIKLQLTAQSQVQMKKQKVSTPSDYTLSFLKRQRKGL
Experiment: qHTS Assay for Inhibitors Targeting the Menin-MLL Interaction in MLL Related Leukemias: Competition With Texas Red Labeled MLL-derived Mutant Peptide; on FP activity change, negative = inhibition: % of control where 0% means no effect
Details: fluorescence polarization; FP activity change, negative = inhibition: at 61.6 µM (top of the series)
Potency means the concentration at half of the fitted maximal effect; tags describe the fitted curve by direction and shape or compound fluorescence and quenching.

Potency, inconclusive:
CN=c1scc(-c2cc(OC)ccc2OC)n1/N=C/c1c(C)[nH]c2ccccc12 14.1 µM [quencher, side channel, partial curve]
COc1cccc(-c2nn(-c3ccccc3)cc2C(=O)OCC(=O)Nc2ncc(Cl)cc2Cl)c1 25.1 µM [quencher, side channel, single point]
Cc1cccc(NC(=O)/C(=C\c2ccc([N+](=O)[O-])o2)NC(=O)c2ccc(Cl)cc2)c1 14.1 µM [quencher, side channel, partial curve]
O=C(Nc1nnc(C2=COCCO2)o1)c1ccc(S(=O)(=O)N2CCCC2)cc1 28.2 µM [quencher, side channel, partial curve]
Cc1cc(C)cc(OCC(=O)Nc2nonc2NC(=O)COc2cc(C)cc(C)c2)c1 31.6 µM [inhibitor, single point]
CC1=C(C(=O)OCC2CCCO2)C(c2coc3ccccc3c2=O)C2=C(CCCC2=O)N1 (centres undefined) 28.2 µM [inhibitor, single point]
COP(=O)(OC)c1nc(-c2ccc(C)cc2)oc1N1CCCCC1 1.12 µM [fluorescent, side channel, full curve, poor fit]
Cc1cc(C(=O)COC(=O)c2ccncc2)c(C)n1CCc1ccc(F)cc1 35.5 µM [fluorescent, side channel, single point]
O=C(O)c1ccccc1Nc1cccc(OCc2ccc3ccccc3n2)c1 10 µM [quencher, side channel, partial curve] and 15.8 µM [quencher, side channel, partial curve]
CC(C)c1ccc(C(=O)NCc2ccc(Cl)cc2)cc1 35.5 µM [fluorescent, side channel, single point]
Cc1ccc(C(c2ccc(C)o2)c2cccc([N+](=O)[O-])c2O)o1 25.1 µM [quencher, side channel, single point]
CCO[C@H]1OC(C(=O)N2CCCCCCC2)=C[C@@H](c2csc3ccccc23)[C@@H]1CCCO 7.94 µM [fluorescent, side channel, partial curve]
O=C1N/C(=C/c2cccs2)C(=O)N1Cc1ccccc1F 39.8 µM [inhibitor, single point]
CCOc1ccc(-n2c(-c3ccccc3)c[n+]3c2CCCCC3)cc1 25.1 µM [inhibitor, single point]
Cc1ccsc1C=C1C(=O)c2ccccc2C1=O 10 µM [quencher, side channel, partial curve]
CC(C)C(=O)Nc1nnc(NC(=S)Nc2ccccc2)s1 11.2 µM [quencher, side channel, partial curve]
CC1CCc2c(sc(NC(=O)Cn3cnc([N+](=O)[O-])n3)c2C(N)=O)C1 (centres undefined) 31.6 µM [quencher, side channel, single point]
O=C(N/N=C/c1ccc(-c2ccccc2[N+](=O)[O-])o1)[C@H]1C[C@@H]1c1ccccc1 20 µM [quencher, side channel, partial curve]
CSCCC(NC(=O)c1ccc(Cl)cc1)C(=O)OCC(=O)Nc1ccc(C#N)cc1 (centres undefined) 14.1 µM [quencher, side channel, partial curve]
CCC(Sc1ccccn1)C(=O)Nc1cccc([N+](=O)[O-])c1 (centres undefined) 15.8 µM [quencher, side channel, partial curve]
COc1cccc(CNC(=O)c2c[nH]n3c(=O)c(Cl)c(C)nc23)c1 39.8 µM [quencher, side channel, single point]
COC(=O)c1sc(=S)n(-c2ccccc2OC)c1N 3.55 µM [inhibitor, partial curve]
Cc1ccc(/C=C2\SC(=S)N(/N=C/c3cc([N+](=O)[O-])ccc3O)C2=O)o1 22.4 µM [quencher, side channel, partial curve]
O=C1CCC(/C=C/c2ccccc2)=NN1Cc1ccccc1Cl 39.8 µM [fluorescent, side channel, single point]
COc1ccc2nc(SCC(=O)Nc3ccc(S(=O)(=O)Nc4onc(C)c4C)cc3)[nH]c2c1 22.4 µM [quencher, side channel, single point]
COc1ccc2[nH]c(C)c(CCNC(=S)Nc3ccc(F)cc3)c2c1 14.1 µM [quencher, side channel, partial curve]
COc1ccc2cc(C(=O)Nc3ccc(S(N)(=O)=O)cc3)sc(=O)c2c1OC 35.5 µM [inhibitor, single point]
CCN(CC)CCN(C(=O)c1ccc(C(=O)c2ccccc2)cc1)c1nc2c(OC)cccc2s1 3.16 µM [fluorescent, side channel, partial curve]
N#CCCN(C(=O)COC(=O)c1cccc(S(=O)(=O)Nc2ccc([N+](=O)[O-])cc2)c1)c1ccccc1 25.1 µM [quencher, side channel, single point]

Potency, inactive:
COCCCn1c(=O)c2sccc2n(Cc2cccc(C)c2)c1=O
CCC(C)(C(=O)NC1CCCCC1)N(Cc1ccco1)C(=O)c1ccccn1 (centres undefined)
CC(=O)NCCc1c(Cc2ccccc2)[nH]c2ccccc12
COc1cccc(Cn2c(=O)c(-c3cn(C)c4ccccc34)nc3cnc(N4CCNCC4)nc32)c1

FP activity change, negative = inhibition, inactive:
C/C(CCC(=O)OC[C@@H]1O[C@H](C#Cc2ccccc2)C=C[C@@H]1Oc1ccc(C)cc1)=N/OC[C@@H](C)[C@H](OCc1ccccc1)C(C)C -2.02% [at 11.7 µM]
